Experimental findings from paper PMC4336329 (PLoS ONE, 2015) are described below.

Each structure is given as a SMILES string. Out of some 310,000 compounds screened, about 2,200 (0.71%) showed an effect of 50% or more. Effects have a minus sign here. The list shows a part of the results.

The target of this test is human ether-à-go-go-related gene (hERG) potassium channel (human, UniProt Q12809). Description: primary screen, population patch clamp on CHO cells stably expressing hERG.
human ether-à-go-go-related gene (hERG) potassium channel, sequence (Q12809 whole entry, looked up): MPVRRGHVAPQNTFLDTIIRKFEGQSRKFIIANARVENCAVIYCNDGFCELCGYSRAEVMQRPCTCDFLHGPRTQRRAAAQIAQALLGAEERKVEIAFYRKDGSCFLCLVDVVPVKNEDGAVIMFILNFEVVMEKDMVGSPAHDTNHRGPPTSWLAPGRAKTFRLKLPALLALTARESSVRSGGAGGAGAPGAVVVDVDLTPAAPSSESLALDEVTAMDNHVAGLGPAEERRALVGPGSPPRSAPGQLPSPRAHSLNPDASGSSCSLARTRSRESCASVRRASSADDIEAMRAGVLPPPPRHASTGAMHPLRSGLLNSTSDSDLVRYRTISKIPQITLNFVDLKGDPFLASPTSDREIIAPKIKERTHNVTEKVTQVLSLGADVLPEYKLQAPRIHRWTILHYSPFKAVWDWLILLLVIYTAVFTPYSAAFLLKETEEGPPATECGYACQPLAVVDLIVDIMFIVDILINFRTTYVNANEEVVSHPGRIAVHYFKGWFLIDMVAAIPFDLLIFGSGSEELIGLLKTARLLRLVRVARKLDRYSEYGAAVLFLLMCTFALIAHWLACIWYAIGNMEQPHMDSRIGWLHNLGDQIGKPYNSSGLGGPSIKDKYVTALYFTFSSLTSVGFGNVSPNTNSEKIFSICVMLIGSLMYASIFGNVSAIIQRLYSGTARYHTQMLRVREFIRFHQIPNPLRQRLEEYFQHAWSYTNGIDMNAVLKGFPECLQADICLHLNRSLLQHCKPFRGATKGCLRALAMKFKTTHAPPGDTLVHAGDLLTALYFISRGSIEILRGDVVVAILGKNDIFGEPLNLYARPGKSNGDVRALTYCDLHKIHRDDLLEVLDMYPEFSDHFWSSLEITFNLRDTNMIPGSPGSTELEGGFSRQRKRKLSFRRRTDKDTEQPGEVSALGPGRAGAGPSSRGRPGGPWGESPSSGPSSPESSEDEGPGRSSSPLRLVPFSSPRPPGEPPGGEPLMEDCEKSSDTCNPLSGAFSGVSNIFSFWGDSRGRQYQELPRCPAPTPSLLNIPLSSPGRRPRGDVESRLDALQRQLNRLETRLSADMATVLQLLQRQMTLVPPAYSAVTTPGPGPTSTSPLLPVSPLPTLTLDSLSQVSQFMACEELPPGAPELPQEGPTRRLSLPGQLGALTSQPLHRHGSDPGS
Regarding `O=C(c1cnn(-c2ccccc2)c1)c1ccccc1O`, the “hERG current change (%, negative = inhibition) at 1uM” value is 9.45%.

With `CCNC(=O)NC(=O)COC(=O)c1cccc(NS(=O)(=O)/C=C/c2ccccc2)c1`, the “hERG current change (%, negative = inhibition) at 1uM” value is recorded as 7.98%.

For `Cc1cccn2cc(CNc3ccccc3)nc12`, the “hERG current change (%, negative = inhibition) at 1uM” value is on record as -0.347%. With `COc1cc(C2NC(=S)NC(O)(C(F)(F)F)C2C(=O)c2cccs2)cc(OC)c1O` (stereo not shown) the figure was 25.1%.

For the compound `CC1CCC(NC(=O)c2ccc(NC(=O)c3ccc(=O)[nH]c3)cc2)CC1` (stereo not shown), the “hERG current change (%, negative = inhibition) at 1uM” value was 7.21%. With `Cc1ccc(NCC(=O)N/N=C/c2cccc(Br)c2)cc1` the figure was 7.99%; with `CCOC(=O)CC(=O)CSc1nnc2c(n1)[nH]c1ccccc12`, 12.1%.

With `O=C(NCCN1CCOCC1)c1cc2c(=O)n3ccccc3nc2n1Cc1ccccc1`, the “hERG current change (%, negative = inhibition) at 1uM” value worked out at 8.53%.

Regarding `Cc1ccc(S(=O)(=O)NCc2ccccc2)cc1C(=O)NC1CCC(C)CC1` (stereo not shown), the “hERG current change (%, negative = inhibition) at 1uM” value amounted to 5.85%. With `S=C(N/N=C/c1ccc2ncccc2c1)Nc1ccccc1`, the “hERG current change (%, negative = inhibition) at 1uM” value was found to be 38.2%. Turning to `COc1ccc(CN2C(=O)C(=O)N(CC(N)=O)C2=O)cc1`, the “hERG current change (%, negative = inhibition) at 1uM” value was found to be 14.9%.

Regarding `CCc1cc2c(-c3ccccc3)cc(=O)oc2cc1OC(=O)c1cccs1`, the “hERG current change (%, negative = inhibition) at 1uM” value worked out at 8.71%. With `O=C1CCC(=O)N1CCSC(=S)N1CCSCC1` the figure was 4.36%; with `O=C(/C=C/c1ccc(Cl)c([N+](=O)[O-])c1)Nc1ccc(N2CCCC2)cc1`, 9.83%.

Consider `CC(=O)C1=C(Nc2ccc(C)cc2)CC(C)(O)C(C(C)=O)C1c1ccco1` (stereo not shown), for which the “hERG current change (%, negative = inhibition) at 1uM” value is 14%. With `O=C(NCc1ccc(F)cc1)C1Cc2ccccc2CN1C(=O)c1ccco1` (stereo not shown) the figure was -9.41%; with `Cc1nn(-c2ccc(F)cc2)c2sc(C(=O)OC3CCOC3=O)cc12` (stereo not shown), 12.4%. With `Nc1nnc(CCCCCCCCCCc2nnc(N)s2)s1` the figure was 11.7%; with `CCCC12CN3CCN(CC(C3)/C1=N\NC(=O)c1ccccc1Cl)C2`, 5.82%; with `O=S(=O)(/C=C/c1ccccc1)N1CCOCC1`, 9.72%. With `Cc1nc(C(=O)Nc2ccc(Cl)cc2)nn1-c1ccc([N+](=O)[O-])cc1` the figure was -38.4%. `NC(=O)C1CCN(c2ccc3c(c2)S(=O)(=O)c2ccccc2C3=O)CC1`: the “hERG current change (%, negative = inhibition) at 1uM” value stood at 8.49%.

Regarding `N#CC(C#N)=C1C=CC=CN1/C(=C\c1ccco1)C(=O)c1ccc(-c2ccccc2)cc1`, the “hERG current change (%, negative = inhibition) at 1uM” value came out at 8.49%. With `Cc1cccc(N2CCN(S(=O)(=O)c3c(C)[nH]c(C)c3C(=O)N3CCCC3)CC2)c1C` the figure was 4.74%; with `CC(C)NC(=O)[C@@H]1C[C@@]1(C)[C@@H](NC(=O)OCc1ccccc1)c1ccccc1`, 15.3%; with `COc1ccccc1N1CCN(/N=C/c2ccc(Cl)c([N+](=O)[O-])c2)CC1`, 10.9%. On to `CCCCn1c(=O)c(C(=O)NC(C)c2ccccc2)c(O)c2ccccc21` (stereo not shown), for which the “hERG current change (%, negative = inhibition) at 1uM” value is reported as 20.6%. Regarding `CC(=O)N1c2ccc(S(=O)(=O)N3CCC(C(=O)Nc4cccc(C)c4C)CC3)cc2CC1C` (stereo not shown), the “hERG current change (%, negative = inhibition) at 1uM” value is reported as -16.8%. Consider `COc1ccccc1OCc1ccc(C(=O)NC(C)c2ccccc2)o1` (stereo not shown), for which the “hERG current change (%, negative = inhibition) at 1uM” value turned out to be 4.47%.

On to `Cc1cccc(NC(=O)CSc2nnc(CNC(=O)c3ccco3)n2C)c1`, for which the “hERG current change (%, negative = inhibition) at 1uM” value worked out at 24.2%. On to `NC(=O)c1cc(-c2ccccc2)sc1NC(=O)CN1CCCCC1`, for which the “hERG current change (%, negative = inhibition) at 1uM” value is recorded as 7.93%. With `Cc1cccc(N2C(=O)C3C4C=CC(C4)C3C2=O)c1` (stereo not shown) the figure was 4.48%; with `Cc1cccn2c(=O)c3cc(S(=O)(=O)c4ccccc4)c(=N)n(Cc4ccc(F)cc4)c3nc12`, 24.7%; with `C/C(=N\Nc1ncc(Br)cn1)c1cccc([N+](=O)[O-])c1`, 10.2%. With `O=C(CN1C(=O)NC2(CCOc3ccccc32)C1=O)c1ccc(Cl)s1` (stereo not shown), the “hERG current change (%, negative = inhibition) at 1uM” value is 8.7%.

For `COC(=O)CCCC1=CC2=CC(=O)C(C)(OC(=O)c3cccs3)C(=O)C2=CN1c1ccc(OC)cc1` (stereo not shown), the “hERG current change (%, negative = inhibition) at 1uM” value amounted to 2.28%. Regarding `Cc1ccc(C)c(N2CCN(S(=O)(=O)c3ccc4c(c3)oc(=O)n4C)CC2)c1`, the “hERG current change (%, negative = inhibition) at 1uM” value came to 14%. Consider `Cc1ccc(S(=O)(=O)N(CC#N)CC#N)cc1`, for which the “hERG current change (%, negative = inhibition) at 1uM” value came to 8.18%. With `COc1cccc(S(=O)(=O)NCc2ccc(C(=O)N3CCN(c4ccccc4)CC3)cc2)c1` the figure was 1.61%; with `O=C(NC1CCS(=O)(=O)C1)/C(=C\c1ccc(F)cc1)NC(=O)c1ccccc1` (stereo not shown), -3.97%; with `CN(Cc1ccno1)C(=O)CC1C(=O)NCCN1CC(c1ccccc1)c1ccccc1` (stereo not shown), 11.9%. `CCOc1ccc(CNC(=O)c2nnc(CS(=O)(=O)c3ccccc3)o2)cc1OC`: the “hERG current change (%, negative = inhibition) at 1uM” value was 13.6%. As for `Cc1ccc2c(c1)C=CC(C#N)N2C(=O)c1ccccc1` (stereo not shown), the “hERG current change (%, negative = inhibition) at 1uM” value was found to be 18.8%. For `CCOc1ccccc1NC(=S)N1CCCc2ccccc21`, the “hERG current change (%, negative = inhibition) at 1uM” value is given as 8.14%.

`COc1ccccc1C(=O)Nc1ccccc1C(=O)NCc1ccco1`: the “hERG current change (%, negative = inhibition) at 1uM” value was found to be 9.88%. On to `Cc1ccc(N2CN(Cc3ccco3)CNC2=S)cc1`, for which the “hERG current change (%, negative = inhibition) at 1uM” value came out at 16.5%.

Regarding `Cn1cnnc1SCC(=O)Nc1cccc(S(=O)(=O)N2CCOCC2)c1`, the “hERG current change (%, negative = inhibition) at 1uM” value is 2.03%. Turning to `O=C(CCN1C(=O)c2ccccc2S1(=O)=O)Nc1ccc(C(=O)O)cc1`, the “hERG current change (%, negative = inhibition) at 1uM” value worked out at 8.13%. With `CCCCN(C(=O)c1oc2ccc(OCC)cc2c1C)c1c(N)n(CC(C)C)c(=O)[nH]c1=O` the figure was 11.4%.

Take `COc1ccc(-c2ccc(-c3noc(-c4cccc(OC)c4)n3)c(OC)n2)cc1`: the “hERG current change (%, negative = inhibition) at 1uM” value is listed as 19.7%.

On to `CCN(Cc1ccccc1)C(=O)Cn1cc(S(=O)(=O)NC)c(S(=O)(=O)NC)c1`, for which the “hERG current change (%, negative = inhibition) at 1uM” value is reported as 14.4%. Turning to `O=C(Nc1ccc(Cl)cc1)c1ccc(Br)cc1F`, the “hERG current change (%, negative = inhibition) at 1uM” value worked out at 16%. With `Cc1ccc(CNC(=O)CCCC(=O)O)cc1` the figure was 4.97%; with `CC(=O)Nc1ccc(S(=O)(=O)N2CCN(C(C)CCc3ccccc3)CC2)cc1` (stereo not shown), -5.65%. With `CCOc1c2ccc(C(=O)NCc3ccc4c(c3)OCO4)cc2nn1CCOC` the figure was 5.72%; with `COc1ccccc1C(=O)NC1CCN(C(=O)Nc2ccc(C)cc2)CC1`, 10.5%; with `CC1CCN(CCOc2ccc(Cl)c(Cl)c2)CC1`, -15.5%. With `CC(C)n1c(NCc2ccc(Cl)cc2)nc2ccccc21` the figure was 7.69%. Turning to `CCC(C)NC(=O)C1c2ccccc2C(=O)N1Cc1ccccc1` (stereo not shown), the “hERG current change (%, negative = inhibition) at 1uM” value came to 14.5%.

Take `CC1(c2nnc(Cc3ccccc3)o2)CC(c2cccc(F)c2)=NO1` (stereo not shown): the “hERG current change (%, negative = inhibition) at 1uM” value was determined as 5.1%. `COc1cccc(N/C(SCc2cccc([N+](=O)[O-])c2)=C(/C#N)C(=O)NCc2cccs2)c1`: the “hERG current change (%, negative = inhibition) at 1uM” value is recorded as 7.73%.

As for `Cc1ccc(NC2CC(=O)N(c3ccc(C)cc3)C2=O)cc1` (stereo not shown), the “hERG current change (%, negative = inhibition) at 1uM” value was 5.32%. Take `CC1CCC2(CC1)NC(=O)N(CC(=O)NC1(C#N)CCCCC1)C2=O` (stereo not shown): the “hERG current change (%, negative = inhibition) at 1uM” value came to 14.6%.

Take `CCCc1noc2c1C(c1ccoc1)C(C#N)=C(N)N2` (stereo not shown): the “hERG current change (%, negative = inhibition) at 1uM” value turned out to be 5.56%. Consider `CCCOC1CCCN(Cc2cn(C)nc2-c2ccccc2F)C1` (stereo not shown), for which the “hERG current change (%, negative = inhibition) at 1uM” value was 13.2%.

With `COc1ccc(N2CC(O)(c3ccc(C)cc3)[N+]3=C2CCCC3)cc1.[Br-]` (stereo not shown), the “hERG current change (%, negative = inhibition) at 1uM” value is 3.52%. With `O=C1NC(=O)C(CCc2ccncc2)(Cc2ccc([N+](=O)[O-])cc2)C(=O)N1` the figure was 15%; with `Nc1nc(-c2ccccc2)nn1S(=O)(=O)c1ccccc1`, 7.67%; with `S=c1[nH]nc(CSCCOc2ccccc2)o1`, 8.97%. Regarding `O=C(COc1ccccc1)Nc1ccc(CSc2ccccc2)cc1`, the “hERG current change (%, negative = inhibition) at 1uM” value amounted to 12.7%.

On to `O=C(NC(C(=O)N/N=C/c1ccncc1)c1n[nH]c(=O)c2ccccc12)c1ccccc1` (stereo not shown), for which the “hERG current change (%, negative = inhibition) at 1uM” value was determined as 9.33%. With `COc1ccc(S(=O)(=O)c2nnn(-c3cccc(OC)c3)c2N)cc1` the figure was 6.81%; with `Cc1cc(=O)cc(C)n1-c1ccc(Cl)c(Cl)c1`, 11.1%; with `O=C(COC(=O)CCOc1ccccc1)Nc1ncc(Cl)cc1Cl`, 7.19%.

Regarding `O=C1N=C(N2CCCC2)S/C1=C\C=C\c1ccccc1`, the “hERG current change (%, negative = inhibition) at 1uM” value is -0.905%. With `Cc1ccc(S(=O)(=O)n2cnc3cc([N+](=O)[O-])ccc32)c(C)c1` the figure was -12.3%; with `Cc1ccc(CN2CCN(CC3CC4C=CC3C4)CC2)cc1` (stereo not shown), -22.4%. With `O=C(COC(=O)c1cncc(Br)c1)NCc1ccco1`, the “hERG current change (%, negative = inhibition) at 1uM” value amounted to 5.14%.

`COc1ccc(OCC(=O)NCc2n[nH]c(=O)c3ccccc23)cc1`: the “hERG current change (%, negative = inhibition) at 1uM” value is reported as -1.83%. On to `Cc1cc(C)cc(N2CN=c3s/c(=C\c4ccco4)c(=O)n3C2)c1`, for which the “hERG current change (%, negative = inhibition) at 1uM” value was determined as 7.62%. With `CC(=O)NNc1nc(-c2ccccc2)c2cc(Br)ccc2n1` the figure was 17.6%.

For `COc1cccc(CC(=O)Nc2ncc(C)s2)c1`, the “hERG current change (%, negative = inhibition) at 1uM” value is 12%. With `CC(=O)NC(CCS(C)(=O)=O)C(=O)Nc1ccc(Oc2ccccc2)cc1` (stereo not shown) the figure was 12%.

`O=C(NCc1cc([N+](=O)[O-])ccc1O)c1cccc(NS(=O)(=O)c2ccccc2)c1`: the “hERG current change (%, negative = inhibition) at 1uM” value worked out at 18.5%. With `Cc1ccc(OCCNC(=O)c2ccccc2F)cc1` the figure was 5.76%.

Turning to `Cc1cccc(-c2ncc(CN3CCN(CC(C)C)C(CCO)C3)cn2)c1` (stereo not shown), the “hERG current change (%, negative = inhibition) at 1uM” value is recorded as -19.3%. With `CCC(=O)Nc1ccc2c(c1)nc(CCN1CCN(C)CC1)n2C` the figure was 20.6%; with `Cc1ccccc1CN1C[C@@H]2C[C@@H](c3cn(C)nc3-c3ccccc3)N3CCC[C@@]23C1=O`, 16.8%.
